# Out of some 52,000 compounds screened, about 1,700 (3.3%) were called active. Rule as the data show it: active = survival mostly below about 52% (no sharp cut-off); inactive = mostly above about 56%. The list shows a part of the results.
# System: Wild type
# Assay: growth inhibition of S. aureus wild type versus tarO mutant, primary screen, teichoic acid synthesis inhibitors, RN4220, OD600 (AID 463173)
# Details: S. aureus RN4220 wild type/DeltatarO growth, OD600, 18 h, active compounds read low, screened at 18.75 µg/mL (by protocol)
row,Structure (SMILES),survival
1,CSc1ccc(-c2nnn(CC(=O)Nc3sc4c(c3C#N)CCC(C(C)(C)C)C4)n2)cc1 (centres undefined),inactive: 82%
2,CCCCOc1ccc(C(C)NC(=O)CN2C(=O)CSc3ccc(S(=O)(=O)N4CCOCC4)cc32)cc1 (centres undefined),inactive: 65%
3,O=C(CN1CCCN(Cc2cccc(Cl)c2)S1(=O)=O)Nc1ccc2c(c1)OCCO2,inactive: 77%
4,CC(C)CC(=O)NCC(c1ccc2c(c1)OCO2)N1CCN(c2ccccc2)CC1 (centres undefined),inactive: 77%
5,COc1ccc(-c2[nH]nc3nc(-c4cc(Br)ccc4OC)cc(C(=O)O)c23)cc1,inactive: 88%
6,Cc1c(C(=O)OC2CCCCC2)[nH]c2c1C(=O)CC(c1ccc(F)cc1)C2 (centres undefined),inactive: 83%
7,Cc1cccc(NC(=O)c2ccc(-n3c(C)nnc3C)cc2)c1,inactive: 92%
8,Cc1ccc(-n2ncc3c(N4CCCCCC4)ncnc32)cc1Cl,inactive: 73%
9,COc1ccccc1CNC(=O)CCc1c(C)nc2cc(-c3ccc(Cl)cc3)nn2c1C,inactive: 141%
10,COc1ccccc1CN1CCC(CNC(=O)c2cnn(-c3ccccc3Cl)c2C2CCN(C(=O)OC(C)(C)C)CC2)CC1,inactive: 60%
11,CC1=NN(c2cccc3ccccc23)C(=O)C1,inactive: 48%
12,CCC(=O)Nc1ccc(Cl)c(-c2nc3ccccc3[nH]2)c1,inactive: 79%
13,CCn1c(COc2ccc(Cl)cc2Cl)nc2ccccc21,inactive: 78%
14,CCc1ccccc1NC(=O)c1cn(C)c(=O)c2ccccc12,inactive: 93%
15,O=S(=O)(c1ccc(F)cc1)N1CCC(Oc2cccc(C(F)(F)F)c2)CC1,inactive: 86%
16,COc1c(Cl)cc(Cl)cc1C(=O)Nc1cccc(-c2nc3ccccc3o2)c1C,inactive: 125%
17,COc1ccc(CCNC(=O)CCCn2c(=O)c3ccccc3n(Cc3ccccc3)c2=O)cc1OC,inactive: 95%
18,COc1cccc(CNC(=O)C(=O)NCC(c2cccs2)S(=O)(=O)c2ccccc2)c1 (centres undefined),inactive: 136%
19,Cc1cccc(N2CCN(C(=O)c3ccc4c(c3)N(Cc3ccccc3)C(=O)c3ccccc3S4(=O)=O)CC2C)c1 (centres undefined),inactive: 80%
20,Cc1c2cnn(-c3ccccc3)c(=O)c2c(C)n1C(C)C(=O)Nc1ccccc1C(F)(F)F (centres undefined),inactive: 81%
21,Cc1cccc(CCNC(=O)c2cc(S(=O)(=O)N3CCCCC3)c[nH]2)c1,inactive: 92%
22,COc1ccc(CCN2C(=O)N(c3cccc(C)c3)C(=O)C2CC(=O)Nc2ccccc2)cc1OC (centres undefined),inactive: 75%
23,Clc1ccc(CCNc2nc3cc(Cl)c(Cl)cc3n3cnnc23)cc1,inactive: 93%

row,Structure (SMILES),survival
1,CCn1c(=O)ccc2cc(OC)ccc21,inactive: 105%
2,Cc1ccc(C)c(NC(c2ccccc2)c2nnc(-c3ccccc3F)o2)c1 (centres undefined),active: 5%
3,COc1ccc(-c2nnc(SCC(=O)N3CCC(C)CC3)o2)cc1,inactive: 71%
4,COc1ccc(-c2nnc(C3CCN(S(=O)(=O)c4cccc(Cl)c4)CC3)o2)cc1,inactive: 78%
5,COc1cc(-c2nc(SCC(=O)Nc3ccc4c(c3)OCO4)c(-c3ccccc3)[nH]2)cc(OC)c1OC,inactive: 63%
6,COc1ccccc1CNC(=O)CSc1ncc(S(=O)(=O)c2ccc(C)c(Cl)c2)c(=O)[nH]1,inactive: 135%
7,C[N+](C)(C)CCNC(=O)c1ccc(/C=N/O)nc1,inactive: 114%
8,COc1ccc(OCCn2c(NC(=O)c3ccc(OC)cc3)nc3ccccc32)cc1,active: -13%
9,CCC1(CC)Cc2ccccc2-c2nc(NN)n(Cc3ccccc3)c(=O)c21,inactive: 112%
10,COCCCNC(=O)C1CCN(Cc2cc3ccccc3n2Cc2cccc(C)c2)CC1,inactive: 77%
11,CNC(=O)C1CCC(Cn2c(=O)c3sccc3n(CC(=O)N3CCCC(C)C3)c2=O)CC1 (centres undefined),inactive: 78%
12,CCCCOC(=O)c1c(C)oc2c1cc(NS(=O)(=O)c1cc(OC)ccc1OC)c1ccccc12,inactive: 66%
13,CCOc1ccc(-c2nnc(SCC(=O)Nc3cccc(C#N)c3)o2)cc1,inactive: 58%
14,COc1ccc(-c2c(C)c3ccc(O)c(CN4CCOCC4)c3oc2=O)cc1OC,inactive: 152%
15,COc1cccc(NC(=O)Nc2ccc3c(c2)N(C)C(=O)c2ccccc2S3)c1,inactive: 53%
16,CC1CCN(C(=O)Cn2c(-c3cccs3)cc3cc(Cl)ccc32)CC1,inactive: 83%
17,CCCN1Cc2cccc(C(=O)Nc3cc(Cl)ccc3C)c2C1=O,inactive: 91%
18,Cc1cc(C)c2c(c1)c(C)cc1nnc(SCC(=O)c3ccccc3)n12,inactive: 78%
19,Cc1ccc(C)c(NC(=O)C(CC(C)C)N2Cc3ccccc3C2=O)c1 (centres undefined),inactive: 159%
20,O=C(CSc1nccn1Cc1ccc(F)cc1)NCc1ccco1,inactive: 67%
21,Cc1cccc(NC(=O)c2sc3ncnc(N(C)C4CCCCC4)c3c2C)c1C,inactive: 128%
22,CC(C)(C)c1ccc(C(=O)Nc2ccc(-c3nc4ccccc4o3)c(O)c2)cc1,inactive: 72%
23,O=C(CN1C(=O)c2ccccc2Sc2ccc(C(=O)N3CCOCC3)cc21)Nc1ccc(Cl)cc1F,inactive: 73%

row,Structure (SMILES),survival
1,CCN1CCN(Cc2c(O)ccc3oc(C)c(C(=O)Nc4cccc(C(F)(F)F)c4)c23)CC1,inactive: 116%
2,COc1cccc(NC(=O)c2c(C)oc3nc(C)nc(N4CCCC4)c23)c1,inactive: 53%
3,CCN(CC)c1ccc2cc(-c3nc4sc5c(c4c(=O)[nH]3)CCC(C(C)(C)C)C5)c(=O)oc2c1 (centres undefined),inactive: 84%
4,O=C(NCc1ccco1)Nc1ccccc1,inactive: 109%
5,Cc1cccc(C)c1NC(=O)c1cc(S(=O)(=O)N2CCc3ccccc3C2)ccc1F,inactive: 152%
6,CCC(=O)N1CCc2cc(S(=O)(=O)CCC(=O)N3CCN(c4cccc(C)c4C)CC3)ccc21,inactive: 79%
7,COc1ccc(CC(=O)Nc2nc3c(s2)CCCC3)cc1,inactive: 100%
8,Cc1ccc2c(c1)N(C(=O)CCC(=O)NCc1cccc(F)c1)CC(C)O2 (centres undefined),inactive: 86%
9,CCOC(=O)c1cccc(NC(=O)CCS(=O)(=O)c2ccc3c(c2)CCN3C(=O)CC)c1,inactive: 89%
10,O=C(c1ccc(Cl)cc1)n1nc(-c2cccnc2)nc1NCc1ccc(F)cc1,inactive: 68%
11,COc1cccc2cc(-c3nc(-c4ccc(Cl)cc4)cs3)c(=O)oc12,inactive: 88%
12,CCOc1ccc(-c2cc3c(=O)n(CC(=O)NCc4ccc(F)cc4)ccn3n2)cc1,inactive: 71%
13,CCn1c(=O)c2sccc2n2c(CCCC(=O)N3CCN(c4ccc(F)cc4)CC3)nnc12,inactive: 99%
14,COC(=O)c1oc2nc(C)cc(C)c2c1N,inactive: 128%
15,CC(=O)c1cccc(NC(=O)c2ccc3nc(Cc4ccccc4)oc3c2)c1,inactive: 45%
16,O=C(CSc1ncccc1C(=O)Oc1ccccc1Cl)Nc1ccc(C(F)(F)F)cc1Cl,inactive: 85%
17,CCOC(=O)c1c(C)[n+]([O-])c2ccc3c(non3O)c12,inactive: 94%
18,COC(=O)c1ccc(NC(=O)C(=O)NCCc2csc(-c3ccc(F)cc3)n2)cc1,inactive: 127%
19,Cc1ccc(O)c(NC(=O)C2=CC(c3ccco3)=NS(=O)(=O)N2C)c1,inactive: 81%
20,COc1ccc(N2CCN(Cc3nc4c(c(=O)[nH]c(=O)n4C)n3Cc3ccccc3C)CC2)cc1,inactive: 120%
21,Cc1csc2nc(COC(=O)CNC(=O)c3ccccc3)cc(=O)n12,inactive: 85%
22,C=CCSc1nnc(-c2ccccc2)n1-c1ccccc1,inactive: 106%
23,COc1ccc(NC(=O)C2CCCN(S(=O)(=O)c3ccc(F)cc3)C2)cc1 (centres undefined),inactive: 85%

row,Structure (SMILES),survival
1,CC(=O)N1CCN(C(=O)C2(NC(=O)Nc3ccc(C)cc3)CCCCC2)CC1,inactive: 108%
2,Cc1ccc(CN(C(=O)COc2ccccc2[N+](=O)[O-])c2ccccn2)o1,inactive: 80%
3,O=c1oc2ccccc2cc1-c1cn2cc(Cc3cc(Cl)ccc3Cl)sc2n1,inactive: 68%
4,CCc1nnc(NC(=O)CSc2nc3c([nH]c4ccccc43)c(=O)n2-c2ccc(Cl)cc2)s1,inactive: 66%
5,FC(F)(F)c1cc(-c2ccccc2)nc2cc(-c3ccccc3)nn12,inactive: 75%
6,CCN(CC)S(=O)(=O)c1ccc2c(c1)N(CC(=O)Nc1cccc(C#N)c1)C(=O)CO2,inactive: 74%
7,CCOc1ccc(N2C(=O)CC3(CC(C(=O)OCc4ccccc4)=NN3)C2=O)cc1 (centres undefined),inactive: 105%
8,Cc1ccc2onc(CC(=O)N3CCN(c4cccc(Cl)c4)CC3)c2c1,inactive: 82%
9,Cc1cc(F)ccc1NC(=O)Cn1cc(S(=O)(=O)NC(C)C)c(S(=O)(=O)NC(C)C)c1,inactive: 73%
10,CCCCSc1nc2sc3c(c2c(=O)n1-c1ccccc1C)CC(C)(C)OC3,inactive: 67%
11,O=C(c1ccccc1)N1CCN(CCc2ccccn2)CC1,inactive: 81%
12,COc1ccc(NC(=O)CNC(=O)Cn2c(C)cc3ccccc3c2=O)c(OC)c1,inactive: 64%
13,CCOc1ccc(-n2cc(-c3ccccc3)c3c(Nc4cccc(F)c4)ncnc32)cc1,inactive: 80%
14,CCOc1ccc(C(=O)Nc2nnc(SCc3cc(=O)n4ccccc4n3)s2)cc1,inactive: 69%
15,Cc1ccc(NC(=O)c2cnc(N3CCCC3)nc2C)cc1F,inactive: 72%
16,CCN(Cc1ccccc1)S(=O)(=O)c1cc(Br)cc2c1N(C(=O)C1CC1)CC2,inactive: 64%
17,COC(=O)C1=C(C)Nc2ccccc2S1,inactive: 108%
18,COc1cccc(C(=O)Nc2c(C(=O)Nc3ccc(F)cc3)oc3ccccc23)c1OC,inactive: 74%
19,CC(CNC(=O)CCn1c(=O)c2cccn2c2ccc(F)cc21)c1ccccc1 (centres undefined),inactive: 62%
20,CCOC(=O)c1ccccc1NC(=O)CSc1c(C)cnc2c1c(=O)n(C)c(=O)n2C,inactive: 59%

# Reference: PubChem BioAssay AID463173 (ICCB-Longwood Screening Facility, Harvard Medical School, 2010)
